# According to paper PMC4336329 (PLoS ONE, 2015):
# In all, about 310,000 compounds went through this assay and about 2,200 (0.71%) showed an effect of 50% or more. Effects have a minus sign here. This is one part of the list.
# Target: human ether-à-go-go-related gene (hERG) potassium channel (human, UniProt Q12809)
# Experiment: primary screen, population patch clamp on CHO cells stably expressing hERG
# Chain of human ether-à-go-go-related gene (hERG) potassium channel (Q12809 whole entry, looked up): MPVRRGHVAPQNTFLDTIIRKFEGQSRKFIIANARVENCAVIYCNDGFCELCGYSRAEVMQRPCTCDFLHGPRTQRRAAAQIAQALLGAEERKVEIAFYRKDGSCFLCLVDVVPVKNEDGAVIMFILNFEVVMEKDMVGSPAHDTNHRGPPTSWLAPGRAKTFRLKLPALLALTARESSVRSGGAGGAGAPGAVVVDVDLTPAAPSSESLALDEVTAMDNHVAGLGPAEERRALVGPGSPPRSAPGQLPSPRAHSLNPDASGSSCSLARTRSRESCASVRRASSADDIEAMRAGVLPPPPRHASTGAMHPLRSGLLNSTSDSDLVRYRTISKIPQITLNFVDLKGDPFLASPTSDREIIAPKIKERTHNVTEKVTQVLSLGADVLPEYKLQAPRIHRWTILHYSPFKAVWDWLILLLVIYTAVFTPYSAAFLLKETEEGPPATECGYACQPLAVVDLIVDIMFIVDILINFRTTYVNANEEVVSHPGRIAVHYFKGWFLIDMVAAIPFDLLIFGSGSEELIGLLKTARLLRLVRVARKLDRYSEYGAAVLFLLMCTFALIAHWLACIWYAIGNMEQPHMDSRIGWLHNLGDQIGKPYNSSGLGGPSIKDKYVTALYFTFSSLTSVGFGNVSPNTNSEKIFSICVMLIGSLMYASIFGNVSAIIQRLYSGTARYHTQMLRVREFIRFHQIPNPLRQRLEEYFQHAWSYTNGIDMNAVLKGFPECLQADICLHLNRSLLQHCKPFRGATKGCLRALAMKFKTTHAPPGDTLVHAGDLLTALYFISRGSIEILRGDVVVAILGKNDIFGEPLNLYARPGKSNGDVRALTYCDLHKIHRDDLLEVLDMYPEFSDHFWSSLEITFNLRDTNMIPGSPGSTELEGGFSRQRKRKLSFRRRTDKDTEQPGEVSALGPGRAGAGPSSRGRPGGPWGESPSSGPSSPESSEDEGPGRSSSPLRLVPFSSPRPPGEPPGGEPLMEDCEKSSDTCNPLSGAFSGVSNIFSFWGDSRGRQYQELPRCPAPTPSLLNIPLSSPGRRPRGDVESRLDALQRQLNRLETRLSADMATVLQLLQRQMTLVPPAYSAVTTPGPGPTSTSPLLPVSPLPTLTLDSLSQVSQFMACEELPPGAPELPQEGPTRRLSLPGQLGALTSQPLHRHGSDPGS
row,Compound,"hERG current change (%, negative = inhibition) at 1uM"
1,C[C@H]1CC[C@]2(O[C@@H](CCO)C[C@H](O)[C@H]2O)O1,18.4%
2,O=c1[nH]c(=O)c2nnc(N/N=C/c3ccccc3F)nc2[nH]1,13.2%
3,O=C1/C(=C\c2ccco2)SC(=S)N1c1ccccc1,5.94%
4,CCCc1nc(NCc2ccccn2)c2nnn(Cc3ccccc3F)c2n1,10.7%
5,O=C(NC1CCCCC1)c1cc(-c2cccs2)on1,4.69%
6,COCCNC(=O)COc1ccccc1Cl,11.7%
7,Nc1c(Cl)cc2c(c1Oc1ccccc1)C(=O)c1ccccc1C2=O,11.2%
8,O=c1[nH]cnc2ccsc12,16.5%
9,O=C(NCCCN1CCC(Cc2ccccc2)CC1)C1CCN(S(=O)(=O)N2CCC3(CC2)OCCO3)CC1,7.63%
10,Cc1cc(=O)oc2cc(OCC(=O)NCC3CCC(C(=O)O)CC3)ccc12 (stereo not shown),17.2%
11,O=C(COc1ccccc1F)c1ccc(O)cc1O,-15.1%
12,CC1=Nc2nc(N3CCCCCC3)c(C#N)c3c4c(nc(c23)N1)N(c1ccc2ccccc2c1)C(=O)C4.CN(C)C=O,16.3%
13,Cc1ccc(S(=O)(=O)N2CCOCC2)cc1C(=O)Nc1ccc2c(c1)OCCO2,2.29%
14,O=C(CN1CCCC1)Nc1ccc([N+](=O)[O-])cc1Cl,1.33%
15,COc1ccc(CN(C)C(C)C(=O)Nc2ccc(S(=O)(=O)N3CCOCC3)cc2)c(OC)c1 (stereo not shown),7.51%
16,COc1ccc(OC)c(N(CC(=O)Nc2cccc3ccccc23)S(C)(=O)=O)c1,9.21%
17,O=[N+]([O-])c1c(Nc2ccccc2)ccc2nonc12,9.18%
18,O=c1c2ccccc2nnn1CSc1ncnc2ccccc12,11.8%
19,N#Cc1c(SCC(N)=O)nc2c(c1-c1ccncc1)CCCC2,1.33%
20,COc1ccc(CCN(C(=O)c2ccc(F)cc2)C2=CC3CCC(C2)N3C)cc1OC.Cl (stereo not shown),-22.6%
21,Cc1cc(NC(=O)c2cccc(Cl)c2)n[nH]1,6.2%
22,CCC(=O)N(C)CCc1cc2c(c(OC)c1/C=N/NC(=O)c1ccncc1)OCO2,8.99%

row,Compound,"hERG current change (%, negative = inhibition) at 1uM"
1,C/C(=N\NC(=O)C1CC1c1ccccc1)c1ccc(C)s1 (stereo not shown),5.29%
2,CCOC(=O)/C(C#N)=c1/s/c(=C2\C=Cc3ccccc3N2CC)c(=O)n1CC,8.73%
3,COc1ccccc1/C=N/NC(=O)c1cccc2ccccc12,13.4%
4,Cc1cc(C)cc(NC(=O)c2ccc(Cn3nc(C)c(Cl)c3C)o2)c1,11.4%
5,c1cnc2c(SCc3ccc(-c4nnco4)cc3)cccc2c1,9.22%
6,O=C1CC(C2CCCO2)C(=O)N1Cc1ccccc1 (stereo not shown),5.53%
7,O=C(Cn1nc(-c2ccccc2)ccc1=O)Nc1ccc(N2CCN(C(=O)c3ccccc3)CC2)cc1,-2.31%
8,c1ccc(-c2cc(N3CCOCC3)nc(-c3ccccc3)n2)cc1,0.549%
9,O=C(/C=C/c1ccc(F)cc1)N1CC[C@@]2(O)CCCC[C@H]2C1,8.98%
10,Cc1csc(NC(=O)c2cc([N+](=O)[O-])cc([N+](=O)[O-])c2)n1,11.7%
11,CCOC(=O)c1c(C)n(C)c2cc(-c3ccc(C)cc3)c(O)cc12,9.68%
12,NC(=O)c1ccsc1NC(=O)COC(=O)c1cnccn1,10.5%
13,O=C(CSc1ncn(-c2ccccc2)n1)Nc1nccs1,8.99%
14,O=C(c1cnc(N2CCN(c3ncccn3)CC2)c2ccccc12)N1CCN(c2ncccn2)CC1,3.66%
15,CC(=O)NCCCOc1ccc([N+](=O)[O-])cc1Cl,7.57%
16,O=C(c1cc2ccccc2o1)N1CCN(c2ccccc2Cl)CC1,3.51%
17,CN1CCc2nc(SCc3ccc(C(C)(C)C)cc3)c(C#N)cc2C1,9.74%
18,Cc1ccccc1-c1nnc(SCC(=O)c2c(N)n(C3CC3)c(=O)[nH]c2=O)o1,14.1%
19,CC(=O)N1CCc2cc(S(=O)(=O)NC(C(=O)NCc3ccccc3)C(C)C)ccc21 (stereo not shown),-0.474%
20,CCCCSc1nnc(-c2ccc(C)cc2)n1C,-10.9%
21,CCCCn1c(SCC(=O)Nc2cc(C)on2)nc2ccccc2c1=O,-2.5%
22,CN(c1ccc(C(=O)NC2CCCC2)cc1)S(=O)(=O)c1ccc(Cl)cc1,11.9%

row,Compound,"hERG current change (%, negative = inhibition) at 1uM"
1,COc1ccccc1-c1nc2ccccc2nc1-c1ccccc1,12.5%
2,Cc1ccc(SCCOCCN2CC(C)OC(C)C2)cc1.Cl (stereo not shown),9.17%
3,Nc1nc(-c2cc3c(cc2Cl)OCCO3)cs1,10.1%
4,CCC(C)[C@H](NC(=O)Nc1cccc(Cl)c1)C(=O)O (stereo partly shown),13.6%
5,O=C(c1ccccc1F)N1CCN(c2ccccc2F)CC1,7.47%
6,CN(Cc1ccccc1)CC(O)COc1ccc(CNCc2cccnc2)cc1 (stereo not shown),9.4%
7,CCOC(=O)Cc1csc(NC(=O)COc2ccc(C)cc2)n1,10.3%
8,COc1ccccc1CNC(=O)C1CCC1,1.49%
9,CC(C)(O)c1[nH]c2cc(C(F)(F)F)ccc2c1C(C)(C)O,9.74%
10,COc1cc([N+](=O)[O-])ccc1NC(=O)NCC1CCN(Cc2ccc(Cl)cc2)CC1,-6.52%
11,COc1ccc(/C=C\c2onc(C)c2S(=O)(=O)N2CCC(C(=O)NCCC(C)C)CC2)cc1,-2.49%
12,Cn1c(=O)c2c(ncn2CC(=O)Nc2nc(-c3ccc(F)c(F)c3)cs2)n(C)c1=O,8.32%
13,CCOc1ccc(NC(=O)c2cccnc2Cl)c([N+](=O)[O-])c1,3.71%
14,C#CCOCCOCCOCCNc1nc(N2CCN(C(=O)[C@H]([C@@H](C)CC)n3cc([C@@H](N)CO)nn3)CC2)nc(N2CCN(C(=O)[C@H]([C@@H](C)CC)n3cc([C@@H](N)Cc4ccc(O)cc4)nn3)CC2)n1.Cl,7.95%
15,COc1ccc(/C=N/Nc2ncccc2[N+](=O)[O-])c(OC)c1,9.88%
16,Cc1ccc(-c2nn3c(C)nnc3s2)cc1NC(=O)CSc1ccc(Cl)cc1,7.83%
17,CCC1CCc2c(sc3ncnc(N4CCOCC4)c23)C1 (stereo not shown),1.5%
18,COc1ccc(CCNc2ccncn2)cc1.Cl,7.44%
19,O=C(CSc1nnc(COc2ccc(Cl)cc2)o1)N1CCCC1,2.66%
20,O=C(/C=C/c1ccccc1)N1CCN(c2c(Cl)cccc2[N+](=O)[O-])CC1,1.18%
21,CCOC(=O)N1CCN(C(=O)C2CCCN(S(=O)(=O)c3ccc(OCC)cc3)C2)CC1 (stereo not shown),2.25%
22,COC(=O)c1cn(C(=O)c2ccco2)c2ccccc12,8.62%

row,Compound,"hERG current change (%, negative = inhibition) at 1uM"
1,O=C1CCN(S(=O)(=O)c2ccccc2)CCN1CCOCc1ccccc1,8.85%
2,CC1(C(=O)NC2CCCCC2)CCC(=O)N1Cc1ccc2c(c1)OCO2 (stereo not shown),6.04%
3,CCCCN1C(=O)C(O)(CC(=O)c2c(C)coc2C)c2ccccc21 (stereo not shown),-4.55%
4,COc1ccccc1C/C(N)=N/OC(=O)/C=C/c1ccccc1,10.9%
5,CN1CC2([N+](=O)[O-])CC=C(Cl)C([N+](=O)[O-])(C1)C2 (stereo not shown),6.24%
6,FC(F)(F)c1cc(-c2ccccc2)nc2nc(N3CCOCC3)sc12,5.51%
7,COc1ccc(Cn2ccnc2SCC(=O)Nc2cccc(NC(C)=O)c2)cc1,10.8%
8,CCOC(=O)c1c(NC(=O)COC(=O)/C=C/c2ccccc2)sc(C(=O)NC)c1C,10.8%
9,Clc1ccc(OCCNCCc2ccccc2)cc1.O=C(O)C(=O)O,-4.03%
10,Cc1nn(Cc2ccccc2)c(C)c1C(=O)OCC(=O)c1cc(C)n(CC(F)(F)F)c1C,11.6%
11,O=C(c1ccccc1)N1CCN(C(=O)c2cccnc2)CC1,14%
12,COC(=O)[C@H](C)NC(=O)NCc1ccccc1F,8.59%
13,N/N=C(\Cc1cscn1)c1ccc(O)cc1O,12.8%
14,CC(C)c1ccc(-c2nnn(Cc3nc4ccccc4s3)n2)cc1,6.89%
15,O=[N+]([O-])c1cccc(/C=N/N2CCN(Cc3ccc(Cl)cc3)CC2)c1,10.7%
16,Cc1ccc2cc(C#N)c(N3CCCN(C(=O)C4CCCO4)CC3)nc2c1C (stereo not shown),-4.98%
17,Cc1csc(=O)n1CCC(=O)OCC(=O)Nc1ccc(C(N)=O)cc1,14.5%
18,CSc1nsc(SCC(=O)N2CCc3ccccc32)n1,12.7%
19,CCCCCCOc1ccc(/C=c2\s/c(=C(/C#N)C(=O)NCc3ccco3)n(-c3ccccc3)c2=O)cc1,16%
20,CCCCCNC(=O)C(C)Sc1ccc(Cl)cc1 (stereo not shown),14.1%
21,C[N+](C)(C)C(Cc1ccccc1)C(=O)[O-] (stereo not shown),10.7%
22,COc1cnc(-c2ccccc2)nc1Oc1cccc(C)c1C,6.2%
